{"source": "paper PMC4336329", "about": "(PLoS ONE, 2015)", "note": "The whole screen tested about 310,000 compounds, of which about 14,000 (4.5%) showed an effect of 50% or more. The effect is printed as a negative number. The list shows a part of the results.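 Further: peak tail current of the secondary pulse compared with the same well before compound.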"}
{"biological_target": "human ether-à-go-go-related gene (hERG) potassium channel (human, UniProt Q12809)", "sequence (Q12809 whole entry, looked up)": "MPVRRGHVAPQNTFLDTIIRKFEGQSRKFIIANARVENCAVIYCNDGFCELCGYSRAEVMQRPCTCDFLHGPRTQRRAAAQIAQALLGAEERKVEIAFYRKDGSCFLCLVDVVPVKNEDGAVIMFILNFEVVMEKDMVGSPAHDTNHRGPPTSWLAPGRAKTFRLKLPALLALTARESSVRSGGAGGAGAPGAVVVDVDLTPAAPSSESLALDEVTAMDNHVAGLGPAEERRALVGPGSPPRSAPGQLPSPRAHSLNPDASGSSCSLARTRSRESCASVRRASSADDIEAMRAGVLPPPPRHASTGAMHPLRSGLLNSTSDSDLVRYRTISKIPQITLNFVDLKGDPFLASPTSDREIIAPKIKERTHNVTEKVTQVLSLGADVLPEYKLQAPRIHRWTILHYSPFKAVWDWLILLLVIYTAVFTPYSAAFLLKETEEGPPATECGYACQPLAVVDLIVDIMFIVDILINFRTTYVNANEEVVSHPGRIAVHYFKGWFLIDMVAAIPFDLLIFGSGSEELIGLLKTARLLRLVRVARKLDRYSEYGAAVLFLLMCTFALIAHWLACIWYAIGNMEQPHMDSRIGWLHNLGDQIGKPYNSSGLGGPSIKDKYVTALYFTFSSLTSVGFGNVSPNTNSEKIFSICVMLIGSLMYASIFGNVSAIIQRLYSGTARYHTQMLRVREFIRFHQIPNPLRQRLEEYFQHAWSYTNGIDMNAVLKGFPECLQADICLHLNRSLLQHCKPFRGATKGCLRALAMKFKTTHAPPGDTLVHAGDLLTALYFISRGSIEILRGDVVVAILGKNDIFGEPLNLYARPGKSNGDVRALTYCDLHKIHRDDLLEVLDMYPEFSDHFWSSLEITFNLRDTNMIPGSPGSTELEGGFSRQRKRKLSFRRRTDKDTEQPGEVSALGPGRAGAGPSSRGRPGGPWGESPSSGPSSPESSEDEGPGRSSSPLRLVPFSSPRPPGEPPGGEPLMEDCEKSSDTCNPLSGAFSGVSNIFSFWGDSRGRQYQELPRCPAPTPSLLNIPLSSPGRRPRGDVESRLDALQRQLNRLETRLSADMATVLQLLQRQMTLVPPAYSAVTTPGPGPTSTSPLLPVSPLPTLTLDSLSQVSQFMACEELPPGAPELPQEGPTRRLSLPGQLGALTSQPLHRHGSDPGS", "assay": "primary screen, population patch clamp on CHO cells stably expressing hERG", "units": {"hERG current change (%, negative = inhibition) at 10uM": "%"}}
{"smiles": "COc1ccc(C)c2sc(NC(=O)C3CC3)nc12", "hERG current change (%, negative = inhibition) at 10uM": -8.73}
{"smiles": "CCOC(=O)c1c(NC(=O)CN2CCN(C(=O)c3ccco3)CC2)sc(C)c1C", "hERG current change (%, negative = inhibition) at 10uM": -8.41}
{"smiles": "Cc1nc2ccc(NS(=O)(=O)c3ccc(F)c(F)c3)cc2s1", "hERG current change (%, negative = inhibition) at 10uM": -10.7}
{"smiles": "Cc1cc(NC(=O)c2cccs2)ncc1NC(=O)C(C)C", "hERG current change (%, negative = inhibition) at 10uM": 8.67}
{"smiles": "CC(C)(C)C1CCC(=NNC(=O)C(=O)NCc2ccco2)CC1", "note": "(stereo not drawn)", "hERG current change (%, negative = inhibition) at 10uM": 5.45}
{"smiles": "O=C(COc1ccc(Cl)cc1[N+](=O)[O-])NC1CCCCC1", "hERG current change (%, negative = inhibition) at 10uM": 0.964}
{"smiles": "COc1cccc(NS(=O)(=O)c2ccc(-c3coc(C)n3)cc2)c1", "hERG current change (%, negative = inhibition) at 10uM": 17.3}
{"smiles": "COc1cc(C2C(C#N)=C(N)N(c3cccnc3)C3=C2C(=O)CCC3)ccc1O", "note": "(stereo not drawn)", "hERG current change (%, negative = inhibition) at 10uM": -12}
{"smiles": "O=C(COc1ccc(S(=O)(=O)N2CCOCC2)cc1)NCc1ccccn1", "hERG current change (%, negative = inhibition) at 10uM": 14.1}
{"smiles": "CCOC(=O)c1cnc2c(c(C3CC3)nn2C)c1N1CCOCC1", "hERG current change (%, negative = inhibition) at 10uM": -3.26}
{"smiles": "CNc1nnc(CSc2nc3ccccc3s2)s1", "hERG current change (%, negative = inhibition) at 10uM": -19}
{"smiles": "CCCCn1c(N)c(N(CC(C)C)C(=O)c2oc3c(Cl)cccc3c2C)c(=O)[nH]c1=O", "hERG current change (%, negative = inhibition) at 10uM": -15.6}
{"smiles": "CSCC[C@@H](Nc1nc(-c2ccccc2)nc2c1oc1ccccc12)C(=O)O.Cl", "hERG current change (%, negative = inhibition) at 10uM": -3.98}
{"smiles": "Cc1ccc(N(C(=O)CNC(=O)c2ccco2)C(C(=O)NC2CCCC2)c2ccncc2)cc1", "note": "(stereo not drawn)", "hERG current change (%, negative = inhibition) at 10uM": 15.1}
{"smiles": "N#Cc1cc(C(=O)c2cc(Cl)ccc2O)cn(CC2CCCO2)c1=O", "note": "(stereo not drawn)", "hERG current change (%, negative = inhibition) at 10uM": -10.1}
{"smiles": "O=C(O)C(=O)O.OC(CNc1ccccc1)Cn1ccc2ccccc21", "note": "(stereo not drawn)", "hERG current change (%, negative = inhibition) at 10uM": 8.33}
{"smiles": "O=C(CNCc1ccc(Cl)cc1)Nc1ccc(C(=O)N2CCCCC2)cc1.O=C(O)C(=O)O", "hERG current change (%, negative = inhibition) at 10uM": -16.2}
{"smiles": "COC(=O)C(/C=N/OCc1ccc([N+](=O)[O-])cc1)NC(=O)c1ccccc1", "note": "(stereo not drawn)", "hERG current change (%, negative = inhibition) at 10uM": -27.1}
{"smiles": "O=C(CSc1nc2nc(-c3cccs3)cc(C(F)(F)F)c2c(=O)[nH]1)Nc1c(F)c(F)c(F)c(F)c1F", "hERG current change (%, negative = inhibition) at 10uM": 12.1}
{"smiles": "CC(NC(=O)c1ccco1)C(=O)Nc1nc(-c2ccccn2)cs1", "note": "(stereo not drawn)", "hERG current change (%, negative = inhibition) at 10uM": -7.69}
{"smiles": "Cc1ccc(S(=O)(=O)CC(C)N2CCOCC2)c(S(=O)(=O)CC(C)N2CCOCC2)c1", "note": "(stereo not drawn)", "hERG current change (%, negative = inhibition) at 10uM": -8.9}
{"smiles": "O=C(NCC1CCCO1)c1ccc2c(=O)n(Cc3cccc(Br)c3)c(=S)[nH]c2c1", "note": "(stereo not drawn)", "hERG current change (%, negative = inhibition) at 10uM": 4.33}
{"smiles": "CC(C)C(C(=O)Nc1sc2c(c1C#N)CCCCC2)N1C(=O)c2ccccc2C1=O", "note": "(stereo not drawn)", "hERG current change (%, negative = inhibition) at 10uM": 4.7}
{"smiles": "CCCCn1nc(C(=O)N(C)CC(=O)Nc2cccc(F)c2)c2ccccc2c1=O", "hERG current change (%, negative = inhibition) at 10uM": -16.3}
{"smiles": "COCCN1Cc2cccc(C(=O)Nc3cccc(OC)c3)c2C1=O", "hERG current change (%, negative = inhibition) at 10uM": 8.16}
{"smiles": "COc1ccc(/C=N/OCC(=O)NC(c2ccccc2)c2ccccc2)cc1OC", "hERG current change (%, negative = inhibition) at 10uM": 2.65}
{"smiles": "Cc1cc(C)cc(NC(=O)CNC(c2ccccc2)c2ccccc2)c1", "hERG current change (%, negative = inhibition) at 10uM": 11.9}
{"smiles": "CSc1cccc(NC(=S)NCCCO)c1", "hERG current change (%, negative = inhibition) at 10uM": -4.03}
{"smiles": "COC(=O)c1sc(NC(=S)NC(=O)c2cccc(C)c2)nc1C", "hERG current change (%, negative = inhibition) at 10uM": -4.16}
{"smiles": "CS(=O)(=O)N(CC(=O)O)c1ccc2c(c1)OCO2", "hERG current change (%, negative = inhibition) at 10uM": 3.63}
{"smiles": "COc1c2ccoc2nc2c(OC)cccc12", "hERG current change (%, negative = inhibition) at 10uM": 2.8}
{"smiles": "O=C(O)CC(C(=O)O)c1cn(Cc2ccccc2)c2ccccc12", "note": "(stereo not drawn)", "hERG current change (%, negative = inhibition) at 10uM": 16.5}
{"smiles": "CC(=O)N(Cc1ccc(Br)cc1)c1cccc(C)c1C", "hERG current change (%, negative = inhibition) at 10uM": 3.64}
{"smiles": "O=C(NCCCN1CCc2ccccc2C1)C1CCN(S(=O)(=O)N2CCCC2)CC1", "hERG current change (%, negative = inhibition) at 10uM": -2.78}
{"smiles": "O=C(CCc1ccccc1)Nc1ccnn1C1CCN(Cc2ncc[nH]2)CC1", "hERG current change (%, negative = inhibition) at 10uM": 19}
{"smiles": "CC1CC(C)CN(S(=O)(=O)c2ccc(NC(=O)c3ccc(=O)[nH]c3)cc2)C1", "note": "(stereo not drawn)", "hERG current change (%, negative = inhibition) at 10uM": -1.77}
{"smiles": "O=C(NCc1ccc(F)cc1)C1CCN(S(=O)(=O)N2CCC3(CC2)OCCO3)CC1", "hERG current change (%, negative = inhibition) at 10uM": 1.49}
{"smiles": "O=C(c1cccc(S(=O)(=O)NCc2ccccc2)c1)N1CCCC1", "hERG current change (%, negative = inhibition) at 10uM": 19.2}
{"smiles": "O=C(Nc1ccc(NC(=O)C2CCCCC2)nc1)c1ccccn1", "hERG current change (%, negative = inhibition) at 10uM": 2.18}
{"smiles": "COc1nc(NCCN2CCOCC2)nc(Nc2ccc([N+](=O)[O-])cc2)n1", "hERG current change (%, negative = inhibition) at 10uM": -50.7}
{"smiles": "CCCCn1c(=O)c(CCC(=O)OCC(=O)NCc2ccc(OC)c(OC)c2)nc2ccccc21", "hERG current change (%, negative = inhibition) at 10uM": -19.8}
{"smiles": "O=C(c1ccc(-c2cccc(Cl)c2)o1)N1CCN(c2ccc([N+](=O)[O-])cc2)CC1", "hERG current change (%, negative = inhibition) at 10uM": -58.9}
